Reference: the antibiotic and cytotoxicity screens of Wong et al. (2023)
This is one part of the list.

Tests used:
[1] = tested on: HSkMC (human skeletal muscle cells); assay: cytotoxicity call (relative viability < 0.9); conditions: 10 µM
[2] = tested on: HepG2; assay: cytotoxicity call (relative viability < 0.9); conditions: 10 µM
[3] = tested on: S. aureus RN4220; assay: growth inhibition call (relative growth <= 0.2); conditions: 50 µM

Compound | cytotoxicity call [1] | cytotoxicity call [2] | growth inhibition call [3]
COc1ccc(S(=O)(=O)Nc2ccc3c(c2)CC(=O)N([C@H](C)CO)C[C@@H](C)[C@H](CN(C)S(=O)(=O)c2cccs2)O3)cc1 | inactive | inactive | inactive
C[C@@H]1CCCCO[C@@H](CN(C)S(=O)(=O)c2cn(C)cn2)[C@H](C)CN([C@H](C)CO)C(=O)c2cc(NS(C)(=O)=O)ccc2O1 | inactive | inactive | inactive
COc1ccc(S(=O)(=O)N(C)C[C@H]2OCCCC[C@@H](C)Oc3ccc(NC(=O)Nc4c(C)noc4C)cc3C(=O)N([C@H](C)CO)C[C@@H]2C)cc1 | inactive | inactive | inactive
CC(C)NC(=O)Nc1cccc2c1O[C@@H](CN(C)Cc1ccc3c(c1)OCO3)[C@@H](C)CN([C@H](C)CO)C2=O | inactive | inactive | inactive
Cc1noc(C)c1NC(=O)N(C)C[C@H]1Oc2ccc(NC(=O)Cn3cnnn3)cc2C(=O)N([C@@H](C)CO)C[C@H]1C | inactive | inactive | inactive
C[C@@H]1CCCCO[C@@H](CN(C)C(=O)Nc2ccccc2)[C@@H](C)CN([C@H](C)CO)C(=O)c2cc(NC(=O)Nc3ccc(F)cc3)ccc2O1 | inactive | inactive | inactive
O=C(C[C@H]1NC(=O)NC1=O)NCc1[nH]nc2c1CCC2 | inactive | inactive | inactive
COc1ccc(C#Cc2ccc3c(c2)[C@]2(C(=O)N3)[C@H](c3ccc(O)cc3)N3[C@H](c4ccccc4)[C@H](c4ccccc4)OC(=O)[C@H]3[C@@H]2C(=O)O)cc1 | inactive | inactive | inactive
O=C1NC(=O)[C@]2(CCc3ccccc32)N1 | inactive | inactive | inactive
CC(C)NC(=O)N(C)C[C@@H]1Oc2ccc(NS(=O)(=O)c3ccccc3)cc2C(=O)N([C@@H](C)CO)C[C@@H]1C | inactive | inactive | inactive
C[C@@H]1CCCCO[C@@H](CN(C)Cc2ccc(C(F)(F)F)cc2)[C@H](C)CN([C@H](C)CO)C(=O)c2cc(NS(=O)(=O)c3ccc(Cl)cc3)ccc2O1 | active | active | inactive
CC(C)NC(=O)Nc1ccc2c(c1)CC(=O)N([C@@H](C)CO)C[C@@H](C)[C@H](CN(C)Cc1ccc(Oc3ccccc3)cc1)O2 | inactive | inactive | inactive
CCn1cnc2c(=O)[nH][nH]c(=O)c21 | inactive | inactive | inactive
C[C@@H]1CN([C@H](C)CO)S(=O)(=O)c2ccc(C3=CCCC3)cc2O[C@@H]1CN(C)C(=O)Cc1ccncc1 | inactive | inactive | inactive
Cc1ccc(S(=O)(=O)Nc2ccc3c(c2)C(=O)N([C@H](C)CO)C[C@@H](C)[C@H](CN(C)Cc2ccc(-c4ccccc4)cc2)O3)cc1 | inactive | inactive | inactive
CN1C[C@@H](N)CC1=O | inactive | inactive | inactive
NS(=O)(=O)c1ccc(N2CCCC2=O)cc1 | inactive | inactive | inactive
CC(COc1ccccc1)NC(C)C(O)c1ccc(O)cc1.Cl (stereo not drawn) | inactive | inactive | inactive
COCC(=O)N1C[C@@H](C)[C@H](OC)CN(C)C(=O)c2cc(NC(=O)Nc3ccccc3)ccc2OC[C@H]1C | inactive | inactive | inactive

Compound | cytotoxicity call [1] | cytotoxicity call [2] | growth inhibition call [3]
CCNC(=O)C[C@H]1C=C[C@H](NC(=O)C2CC2)[C@@H](CO)O1 | inactive | inactive | inactive
O=C(C[C@H]1CC[C@@H](NC(=O)Cc2ccccn2)[C@H](CO)O1)NCCc1ccncc1 | inactive | inactive | inactive
C[C@@H]1CN([C@@H](C)CO)C(=O)Cc2cc(NC(=O)Cc3cn(C)c4ccccc34)ccc2O[C@@H]1CN(C)Cc1ccc(-c2ccccc2)cc1 | inactive | active | inactive
CC(=O)Nc1c(I)cc(I)c(C(=O)O)c1I | inactive | inactive | inactive
CO[C@H]1CN(C)C(=O)c2cc(NS(C)(=O)=O)ccc2OC[C@@H](C)N(C(=O)C2CCCCC2)C[C@H]1C | inactive | inactive | inactive
COc1ccc(CNC(=O)N(C)C[C@@H]2OCc3ccccc3-c3c(n(C)c4ccccc34)C(=O)N([C@@H](C)CO)C[C@H]2C)cc1 | inactive | inactive | inactive
C[C@H]1CN([C@@H](C)CO)C(=O)Cc2cc(NC(=O)c3ccncc3)ccc2O[C@H]1CN(C)S(C)(=O)=O | inactive | inactive | inactive
COCC(=O)N(C)C[C@H]1Oc2cc(-c3ccc(C#N)cc3)ccc2S(=O)(=O)N([C@H](C)CO)C[C@H]1C | inactive | inactive | inactive
O=C(C[C@@H]1CC[C@@H]2[C@H](COC[C@@H](O)CN2S(=O)(=O)c2ccc(Cl)cc2)O1)NCCN1CCCCC1 | inactive | inactive | inactive
C[C@H](CO)N1C[C@H](C)[C@@H](CN(C)C(=O)Cc2ccccn2)Oc2ncc(C#CC3CCCC3)cc2C1=O | inactive | inactive | inactive
C[C@H](CO)N1C[C@H](C)[C@H](CN(C)C(=O)Nc2ccc3c(c2)OCO3)OCCCC[C@H](C)Oc2ccc(NC(=O)Cc3ccccc3)cc2C1=O | inactive | inactive | inactive
N[C@@H](CS(=O)O)C(=O)O | inactive | inactive | inactive
C[C@@H]1CN([C@H](C)CO)C(=O)c2cc(NC(=O)Nc3ccc4c(c3)OCO4)ccc2O[C@@H](C)CCCCO[C@@H]1CN(C)S(=O)(=O)c1ccc(F)cc1 | inactive | inactive | inactive
Cc1noc(C)c1S(=O)(=O)Nc1ccc2c(c1)C(=O)N([C@H](C)CO)C[C@@H](C)[C@H](CN(C)S(=O)(=O)c1ccc(F)cc1)O2 | inactive | inactive | inactive
CCCNC(=O)[C@@H]1c2ccccc2C(=O)N(Cc2cc(C(F)(F)F)cc(C(F)(F)F)c2)[C@H]1c1ccc(CO)cc1 | inactive | inactive | inactive
O=C(N[C@H]1CC=CC[C@H](CC(=O)N(CCO)Cc2ccccc2)C(=O)N[C@@H](Cc2ccccc2)COC1=O)OCC1c2ccccc2-c2ccccc21 | active | active | inactive
CO[C@@H]1CN(C)C(=O)c2cc(NS(C)(=O)=O)ccc2OC[C@@H](C)N(C(=O)C2CCCCC2)C[C@H]1C | inactive | inactive | inactive
C[C@@H]1CN([C@@H](C)CO)C(=O)Cc2cc(NS(=O)(=O)c3cn(C)cn3)ccc2O[C@H]1CN(C)S(C)(=O)=O | inactive | inactive | inactive
COc1ccccc1NC(=O)C1=C(C)N=C(SCC(=O)Nc2ccccc2[N+](=O)[O-])C(C#N)[C@@H]1c1ccccc1F (stereo partly drawn) | inactive | inactive | inactive

Compound | cytotoxicity call [1] | cytotoxicity call [2] | growth inhibition call [3]
COc1ccc(NC(=O)N(C)C[C@@H]2Oc3ncc(C#C[C@@H](C)O)cc3C(=O)N([C@H](C)CO)C[C@@H]2C)cc1 | inactive | inactive | inactive
C[C@H]1CN([C@@H](C)CO)C(=O)Cc2cc(NS(=O)(=O)c3cn(C)cn3)ccc2O[C@H]1CN(C)S(C)(=O)=O | inactive | inactive | inactive
Cc1oc(=O)oc1CN1CCN(c2cc3c(cc2F)c(=O)c(C(=O)O)c2n3C(C)S2)CC1 (stereo not drawn) | inactive | inactive | active
C[C@H](CO)N1C[C@H](C)[C@@H](CN(C)S(=O)(=O)c2ccccc2)Oc2ccc(NS(=O)(=O)c3cn(C)cn3)cc2CC1=O | inactive | inactive | inactive
COc1ccc(CN(C)C[C@@H]2OCCCC[C@H](C)Oc3ccc(NS(=O)(=O)c4ccc(C)cc4)cc3C(=O)N([C@@H](C)CO)C[C@H]2C)cc1 | inactive | inactive | inactive
C[C@@H]1CN([C@@H](C)CO)C(=O)c2cccc(NC(=O)CCCCCC(=O)Nc3ccccc3N)c2O[C@@H]1CN(C)Cc1ccc(C(F)(F)F)cc1 | inactive | inactive | inactive
C[C@@H]1CN([C@@H](C)CO)C(=O)Cc2cc(NC(=O)Nc3ccc(C(F)(F)F)cc3)ccc2O[C@@H]1CN(C)C(=O)Nc1ccc(F)cc1 | active | active | inactive
CN(C)CCCSC(=N)N | inactive | inactive | inactive
Cc1noc(C)c1S(=O)(=O)N(C)C[C@@H]1Oc2ccc(NC(=O)Nc3ccc4c(c3)OCO4)cc2CC(=O)N([C@@H](C)CO)C[C@@H]1C | inactive | inactive | inactive
COCC(=O)Nc1ccc2c(c1)C(=O)N(C)C[C@@H](OC)[C@H](C)CN(Cc1cccc(F)c1)[C@@H](C)CO2 | inactive | inactive | inactive
C[C@@H]1CN([C@H](C)CO)C(=O)c2cc(NC(=O)CCC(F)(F)F)ccc2O[C@@H](C)CCCCO[C@H]1CN(C)C(=O)Nc1ccc2c(c1)OCO2 | inactive | inactive | inactive
C[C@@H]1CC=CC[C@H](c2ccc3c(c2)OCO3)NC(=O)[C@@H](Cc2ccccc2)N(C)C(=O)c2ccccc2O1 | inactive | active | inactive
Cc1noc(C)c1NC(=O)Nc1ccc2c(c1)C(=O)N([C@H](C)CO)C[C@@H](C)[C@H](CN(C)CC1CC1)OCCCC[C@@H](C)O2 | inactive | inactive | inactive
C[C@H](CO)N1C[C@H](C)[C@@H](CN(C)Cc2ccc(Cl)c(Cl)c2)Oc2ccc(NC(=O)Nc3ccc4c(c3)OCO4)cc2CC1=O | active | inactive | inactive
O=C(C[C@H]1CC[C@H]2[C@@H](COC[C@@H](O)CN2S(=O)(=O)c2ccc(F)cc2)O1)NCc1ccncn1 | inactive | inactive | inactive
C[C@@H]1CN([C@H](C)CO)C(=O)c2cccc(NC(=O)C3CCCCC3)c2O[C@@H]1CN(C)Cc1ccc(C(F)(F)F)cc1 | inactive | inactive | inactive
C[C@H]1CCCCO[C@@H](CN(C)CC2CCCCC2)[C@@H](C)CN([C@@H](C)CO)C(=O)c2cc(NC(=O)Nc3ccc(C(F)(F)F)cc3)ccc2O1 | active | active | inactive
C[C@@H]1CCCCO[C@@H](CN(C)S(C)(=O)=O)[C@@H](C)CN([C@H](C)CO)C(=O)c2cc(NS(=O)(=O)c3ccccc3)ccc2O1 | inactive | inactive | inactive
